Over roughly 33,000 sequences, “E-score (-0.5 to 0.5)” has its median near -0.011; the highest 2% begin near 0.28. Some of the results follow.

The target of this assay is T1, Gcr1 (UniProt P07261).
T1 sequence: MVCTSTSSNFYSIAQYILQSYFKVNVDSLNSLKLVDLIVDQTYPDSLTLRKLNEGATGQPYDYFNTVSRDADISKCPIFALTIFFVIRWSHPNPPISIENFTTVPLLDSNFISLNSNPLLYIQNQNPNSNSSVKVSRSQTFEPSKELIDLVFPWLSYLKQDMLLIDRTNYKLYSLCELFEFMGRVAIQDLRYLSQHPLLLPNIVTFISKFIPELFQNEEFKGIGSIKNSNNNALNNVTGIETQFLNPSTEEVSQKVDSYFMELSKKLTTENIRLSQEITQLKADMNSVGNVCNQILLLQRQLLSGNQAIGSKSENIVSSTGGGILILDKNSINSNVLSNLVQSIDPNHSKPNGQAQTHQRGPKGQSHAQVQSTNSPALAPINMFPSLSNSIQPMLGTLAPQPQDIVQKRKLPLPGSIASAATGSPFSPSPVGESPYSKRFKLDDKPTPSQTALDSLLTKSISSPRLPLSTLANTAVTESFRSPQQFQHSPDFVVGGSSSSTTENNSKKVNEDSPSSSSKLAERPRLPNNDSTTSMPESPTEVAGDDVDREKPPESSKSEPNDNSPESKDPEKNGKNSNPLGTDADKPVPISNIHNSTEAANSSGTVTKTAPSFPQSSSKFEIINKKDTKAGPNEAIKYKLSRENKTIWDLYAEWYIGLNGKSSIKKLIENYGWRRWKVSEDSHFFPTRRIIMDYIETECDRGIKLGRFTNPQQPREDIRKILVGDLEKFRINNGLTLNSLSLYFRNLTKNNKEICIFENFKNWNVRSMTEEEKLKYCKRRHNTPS
Briefly: PBM E-score (8-mer binding enrichment) (E-score (-0.5 to 0.5)); higher = stronger / more preferred TF binding; most listed sequences are background and not binding sites. The conditions noted are these: protein concentration: 100 nM; construct: GST-full length. A digest of the protocol: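 Each ungapped eight-base word and its reverse complement, pooled, received an E-score from the Universal PBM Analysis Suite. Underlying scans, normalised with masliner, recorded fluorescent anti-GST bound to GST-tagged yeast transcription factors. These were applied at about 100-200 nM to universal all-10-mer Agilent arrays double-stranded by primer extension.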
CTAGCTTC: the “PBM E-score” value stood at 0.316. With AACATTTG, the “PBM E-score” value is 0.126.

ACATCTCT: the “PBM E-score” value is -0.157. With GATTCGCC, the “PBM E-score” value came out at 0.0655.

With CAGTTTCC, the “PBM E-score” value was 0.159. Under GATCGTAC stands 0.00975; under AAGGTCCG, -0.154.

As to CGCCAGTA, the “PBM E-score” value was determined as 0.155.

Consider CCCTACAA, for which the “PBM E-score” value was 0.0817.

Take GGAGGGTA: the “PBM E-score” value is -0.251.

Turning to ACCACCTC, the “PBM E-score” value was -0.191. With TGGCCAAA, the “PBM E-score” value is -0.157. Take ACGCCACA: the “PBM E-score” value was 0.104.

Consider CTTCCCTC, for which the “PBM E-score” value was -0.0496. With ACCTCCCT, the “PBM E-score” value is -0.242.

Consider CTGTAAAC, for which the “PBM E-score” value was 0.138. Under CGTATACC stands 0.0469. TAGAGGGA: the “PBM E-score” value was -0.0458. The figure for CAACCTCG is -0.0837. As to CGAATACG, the “PBM E-score” value stood at 0.205. As for ACCGGAGC, the “PBM E-score” value worked out at 0.183. On to CGGCATCC, for which the “PBM E-score” value worked out at 0.444. On to AAGCAGGT, for which the “PBM E-score” value is 0.161. As for TACCAACA, the “PBM E-score” value was 0.0118. Turning to TCTGTGCA, the “PBM E-score” value is -0.143. Turning to TGGAGAAA, the “PBM E-score” value is -0.0779. As for GCCTGACA, the “PBM E-score” value is -0.173. As for CTATCTAC, the “PBM E-score” value is -0.239. As to AGTAAGTC, the “PBM E-score” value is -0.105. As for CCAATCTA, the “PBM E-score” value was 0.207. AATCCCGC: the “PBM E-score” value turned out to be 0.185. Under CAAAGCGC stands -0.119. Regarding ACACGGCG, the “PBM E-score” value was 0.0542.

On to CGGACCAG, for which the “PBM E-score” value is -0.117.

Consider ACCCGGAT, for which the “PBM E-score” value was -0.073. Under AGGCTCAA stands -0.283.

On to ACGCGTAA, for which the “PBM E-score” value is -0.0986. The figure for CGCAATTC is 0.0283; for ATGAATGG it is 0.0657; for GCAACAGA it is -0.0373.

Turning to AACCTCAT, the “PBM E-score” value is -0.222. ATCCTTAG: the “PBM E-score” value amounted to 0.0994. ATCTCACG: the “PBM E-score” value is -0.196. The figure for AGATAGAT is 0.0108; for GGCTATAA it is 0.139. As for ACCACAGG, the “PBM E-score” value was determined as 0.0775.

Turning to ATCCCGCC, the “PBM E-score” value is -0.0496. Regarding GGCACGCC, the “PBM E-score” value is -0.136.

For the sequence CATTTTCC, the “PBM E-score” value was 0.0794.

In the case of CATCCGGG, the “PBM E-score” value came to 0.143.

On to TTAAACAA, for which the “PBM E-score” value was -0.0415. As for CAAAAGGC, the “PBM E-score” value is -0.0644.

As for AATGAACA, the “PBM E-score” value was -0.0781. As to GTATACGA, the “PBM E-score” value stood at 0.196. For ACGACCCA, the “PBM E-score” value is -0.03. Under GCATGCTA stands -0.227. On to CGGCCACA, for which the “PBM E-score” value came to 0.0838. For the sequence CGGGCCTA, the “PBM E-score” value is -0.19. Take GACGAGCC: the “PBM E-score” value was -0.0889. Take GAACTTTA: the “PBM E-score” value was 0.0441. Under CATTGATC stands -0.0206.

In the case of ATGTATAC, the “PBM E-score” value is -0.208.

In the case of ACTACATA, the “PBM E-score” value is 0.0743. Take CTGATGCC: the “PBM E-score” value is -0.0173. Under CTAATCAC stands 0.156; under CTTTCTCC, -0.0695. For CCAAAGCC, the “PBM E-score” value was -0.0694. The figure for CCGTCTAG is 0.0957; for ACACAGTC it is -0.23; for GTCTCTAA it is 0.0027. Take AACCGCAA: the “PBM E-score” value is 0.168. Under CTCATGGC stands -0.11; under TAGCTATA, -0.0112; under GTTCCCGA, 0.235. As for AAGGACTG, the “PBM E-score” value is -0.228. Consider GCCCTAAC, for which the “PBM E-score” value came to 0.0843.

As for ATCAAGAG, the “PBM E-score” value was -0.088. On to ATTTGTCC, for which the “PBM E-score” value was -0.109.

As for GCTGGCAC, the “PBM E-score” value was 0.0435. Regarding CAGCACCC, the “PBM E-score” value was 0.277.

Consider ATGGAATC, for which the “PBM E-score” value came to 0.29. For ACGTGCGA, the “PBM E-score” value is -0.00287. As to CTCACCAA, the “PBM E-score” value came to 0.123. In the case of ATTGGACC, the “PBM E-score” value came to 0.0391. With AATTCTAC, the “PBM E-score” value was -0.00431.

In the case of ACGATAAG, the “PBM E-score” value was -0.0683.

The record behind these values is the supplement of paper PMC3334620.
